Data reported in the supplement of paper PMC3334620.
In all, about 33,000 sequences were measured (“E-score (-0.5 to 0.5)”: median about -0.043, highest 2% from about 0.37 on). The list shows a part of the results.

Target: T1, Upc2 (UniProt Q12151)
T1 sequence: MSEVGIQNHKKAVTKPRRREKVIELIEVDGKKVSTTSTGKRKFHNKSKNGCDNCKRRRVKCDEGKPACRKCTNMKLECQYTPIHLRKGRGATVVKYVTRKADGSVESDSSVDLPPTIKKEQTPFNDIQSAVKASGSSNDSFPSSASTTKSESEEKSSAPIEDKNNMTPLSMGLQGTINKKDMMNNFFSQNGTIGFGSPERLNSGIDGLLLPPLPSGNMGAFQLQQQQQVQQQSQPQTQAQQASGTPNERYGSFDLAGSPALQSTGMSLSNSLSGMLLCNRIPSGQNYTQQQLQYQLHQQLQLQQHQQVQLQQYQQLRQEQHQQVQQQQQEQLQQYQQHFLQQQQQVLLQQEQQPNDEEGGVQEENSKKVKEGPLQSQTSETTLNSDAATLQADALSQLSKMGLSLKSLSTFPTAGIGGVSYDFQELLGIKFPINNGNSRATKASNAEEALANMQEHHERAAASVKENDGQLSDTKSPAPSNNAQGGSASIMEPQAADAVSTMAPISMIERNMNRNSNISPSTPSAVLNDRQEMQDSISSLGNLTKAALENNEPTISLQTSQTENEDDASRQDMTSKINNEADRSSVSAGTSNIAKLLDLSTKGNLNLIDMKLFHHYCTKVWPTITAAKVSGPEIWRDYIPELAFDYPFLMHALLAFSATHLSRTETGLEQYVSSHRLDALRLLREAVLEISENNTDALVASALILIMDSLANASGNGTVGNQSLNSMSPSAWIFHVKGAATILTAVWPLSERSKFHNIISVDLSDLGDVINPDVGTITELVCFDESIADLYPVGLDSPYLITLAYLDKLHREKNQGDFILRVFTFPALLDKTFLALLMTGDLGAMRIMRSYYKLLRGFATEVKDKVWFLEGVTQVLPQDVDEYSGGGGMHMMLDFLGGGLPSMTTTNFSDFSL
Assay: PBM E-score (8-mer binding enrichment) (E-score (-0.5 to 0.5)); higher = stronger / more preferred TF binding; most listed sequences are background and not binding sites
Details: protein concentration: 200 nM; construct: GST-full length
Summary of the method: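 PURExpress in vitro transcription/translation supplied GST-tagged yeast transcription factors, either full-length or DNA-binding domain. Applied at about 100-200 nM to universal all-10-mer Agilent arrays double-stranded by primer extension, the bound protein was detected with fluorescent anti-GST. E-scores, modified Wilcoxon-Mann-Whitney statistics, were given by the Universal PBM Analysis Suite to ungapped eight-base words pooled with their reverse complements after masliner normalisation.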

Sequence	PBM E-score
CTACCTTC	-0.0586
GGCCCTCA	-0.302
AGCCCTGG	-0.22
GCCACTAC	-0.0719
ACACATTA	0.102
ACGCATAA	0.172
AAACTGGC	-0.203
ATCAGAAC	0.0734
AGGGGGTA	-0.251
AGCTGGCA	-0.13
CCTTGCGA	-0.195
GGCACGTA	0.133
AGTCGGAG	-0.179
GCAACGGC	-0.117
ATACGGGG	0.411
CTTTCGAC	-0.0443
GCCTTCAA	-0.221
ATATCGCC	-0.0125
AGTGCATG	-0.0727
AACACACT	0.0379
CCTAGCGC	-0.228
CAACCGTC	-0.0306
ACTTTCAC	-0.0835
ATTATACC	0.144
TAGCCAAA	0.0938

Sequence	PBM E-score
ATATTGCA	0.114
TGACCCAA	-0.204
CTCTAGTC	-0.141
AATAGTAG	-0.0499
AAAGTACG	0.305
GTCATACA	-0.119
GTTTGATA	0.132
CGCAATTA	-0.00479
ACAAAGCT	-0.0598
GGATCGTA	0.422
GTCGGCTA	0.0283
CTATCAGC	-0.151
CCATTGAA	-0.00183
ATTACGTG	-0.118
CGCTTACG	0.372
GGATCTAA	0.00023
ACACTCCA	-0.00609
CTAACCCC	-0.306
GAGGGATA	0.0343
CTCATGAC	-0.00923
AGACGGCG	-0.0186
CCAAGCAG	-0.234
AGGCGTGG	-0.205
AACCAGTC	-0.105
AATCTGTG	-0.122

Sequence	PBM E-score
AACTAGCG	0.0976
ACACGTCA	-0.184
ATTCCTCA	-0.0423
CCGAAACA	0.197
CTTGACTA	-0.107
AGCTGGAA	-0.109
AGTCTTTA	-0.0445
AGTATCAT	0.152
CTCGCGAC	0.153
CCAAGACA	-0.167
TACGGGCA	0.351
ATAGATAG	-0.199
ACGCACAT	0.251
CCACCCTC	-0.0806
CCCAGGAA	-0.135
ATGCCGAA	0.0644
GAAGACGA	0.102
ACGTTGCA	0.12
ATTCGAAT	0.0538
CTTGGCTA	-0.234
AACCTGTA	0.118
GACCCCGC	-0.0436
ACTATTTG	-0.13
AGTGGACG	0.0343
CGAAGCCA	0.0563

Sequence	PBM E-score
AGGTACAA	-0.153
ATTCCGAC	-0.0912
AACCACAA	-0.077
GCGCCTTA	0.0151
GTAACTAC	0.0797
AAATCTCT	0.0268
CGACAGAC	0.101
CGGAGGCA	-0.0797
ACGTTCCA	0.116
ACGCAATC	0.0471
CCTGGACG	-0.214
AACTAGGT	-0.132
AGCAATTA	0.025
AACTGAGG	-0.0146
GGTGAACA	-0.288
AATGACTG	-0.197
AGACTAAT	-0.24
ACCAGATA	0.118
CCCCACTC	0.0794
AGCTGGCG	-0.0685
ACCTGCTC	0.0469
CATGTAAC	0.017
TAGAGTGA	-0.255
CGCACGTC	-0.106
GCAATTCA	-0.0134

Sequence	PBM E-score
GAGCCGTA	0.308
CACCAATA	-0.122
CGCTATTA	0.106
AGGTATCG	0.0877
CTGGGGTC	-0.244
CAAAGGAA	0.137
AAGTCTAT	-0.209
CATTTGGG	0.0514
CTTAGGCA	-0.361
ACCGTCAC	-0.236
AAGAGGTA	0.0352
GACATCTC	0.0241
CGTTGTAG	0.00423
AACGCTTA	0.071
TATGCGAA	0.346
ATGGATCC	-0.148
GATTCGAC	-0.109
ATGGGGTA	-0.0229
TCGGAAGA	-0.00408
GTACCAAA	0.161
GGGTTGTA	0.00302
CGAGGACG	0.197
AACCTCAA	-0.138
CATATGCG	0.245
GGCTCTTA	0.133

Sequence	PBM E-score
ATTTACCG	0.165
GTCCGGTA	0.0427
CGTATTTC	0.314
GGTAGAGA	-0.0945
AAATCGCG	0.0964
CAATACCA	-0.0526
TCTACTAA	0.0296
TGCGCGAA	0.186
TCCATCGA	-0.0738
CAACTGGC	-0.184
CCTCCACC	-0.195
GAGATCGA	-0.127
GCTGACCC	-0.182
ACGATCAA	0.228
ACGGAGCA	-0.00346
ACTTTACT	-0.151
AGTTATTC	0.162
ATACAGTG	0.118
ACTTGGTA	0.091
CTGGGGAC	-0.239
GGGGTACC	-0.301
AGTGGTTA	0.127
AGGGTAGG	-0.331
CCATACGC	0.322
AAGCCTTA	0.00135

Sequence	PBM E-score
GTCGTGCA	0.038
AAAGACTG	0.103
GCGGCGAA	-0.0606
TAGTAGAA	0.105
ATTGTAGA	0.0288
GGGCTTAA	-0.131
CCGCTGAA	-0.042
CCTGCTCA	-0.176
ACTACGAG	0.284
GCCTTGAC	-0.234
AAAAAGGT	-0.0451
AAGTAACA	-0.157
CTAGTAGC	0.0825
CCAGCGGC	-0.197
GCCCAGAA	-0.131
CCTTAGCG	0.132
AAGGTCTA	0.00968
AATCGCAT	0.0361
ATTGAAGC	-0.0421
TATTTGAA	-0.04
CCAACACA	0.0458
ACTCATAC	0.285
